Test results published in PubChem BioAssay AID588453 (National Center for Advancing Translational Sciences (NCATS), 2011).
“And” between values parts separate entries of the source, which are not always exact repeats. Identical values can stand only once. Hit rate of the full screen: of about 390,000 compounds, about 4,000 (1%) were called active. This list was built around the results that the source calls inconclusive (neither active nor inactive); the mix of calls is not that of the screen. Calls come from the whole dose curve; as a rule, active = well fitted inhibition curve with a large enough effect; inconclusive = small, poorly fitted or top-dose-only effect; inactive = no such curve, though single readings can be large or run the other way. Potencies beside an inconclusive call are fits to weak or partial responses and may not hold up.

The compounds below were run against Thioredoxin reductase 1, cytoplasmic (Rattus norvegicus) (UniProt O89049) (assay: qHTS Assay for Inhibitors of Mammalian Selenoprotein Thioredoxin Reductase 1 (TrxR1): qHTS). Settings: recombinant rTrxR1, NADPH fluorescence consumption, selenite substrate; series mostly up to 114 µM.
Summary of the method: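 Rat TrxR1 (90 nM in the dispensed reagent) was pre-reduced with 400 uM NADPH for 5 min at room temperature, then incubated with compound for 15 min. After 400 uM selenite was added, NADPH fluorescence (Ex 340/Em 450 nm) was followed for 8 min.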
% is set by controls: 0 for no effect and ±100 for the full control effect; potency is the fitted concentration of half-maximal effect; tags give direction and shape of the fitted curve.
Note: nearly all actives have a fitted effect of over 65% in size.

UniProt O89049, sequence (O89049 whole entry, looked up): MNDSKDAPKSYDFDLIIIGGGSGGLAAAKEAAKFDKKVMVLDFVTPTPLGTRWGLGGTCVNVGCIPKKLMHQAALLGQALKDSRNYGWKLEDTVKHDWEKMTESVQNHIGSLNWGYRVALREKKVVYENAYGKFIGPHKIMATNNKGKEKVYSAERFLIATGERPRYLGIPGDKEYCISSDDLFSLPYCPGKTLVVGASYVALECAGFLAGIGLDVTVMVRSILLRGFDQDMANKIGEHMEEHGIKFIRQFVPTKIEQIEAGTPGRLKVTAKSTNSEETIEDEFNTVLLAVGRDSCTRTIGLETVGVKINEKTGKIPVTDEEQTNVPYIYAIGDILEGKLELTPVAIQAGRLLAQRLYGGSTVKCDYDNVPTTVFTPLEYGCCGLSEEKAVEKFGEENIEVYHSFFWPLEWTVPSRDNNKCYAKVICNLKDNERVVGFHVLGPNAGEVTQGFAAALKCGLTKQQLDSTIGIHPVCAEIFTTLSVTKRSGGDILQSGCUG

Compound | Potency | activity change, negative = inhibition
Cc1ccccc1CN1CCc2c(OCC(=O)N3CCCc4ccccc43)cccc2C1=O | inactive | –
CCN(Cc1ccccc1)C(=O)CN1C(=O)COc2ccc(S(=O)(=O)N(CC)CC)cc21 | inactive | –
Cc1cccc(NC(=S)NNC(=S)NC2CCCCC2)c1C | inconclusive: 17.8 µM [inhibitor, single point] | –
O=C1CC(/C=C/c2ccco2)=Nc2ccccc2N1 | inconclusive: 89.1 µM [inhibitor, partial curve, poor fit] | –
CC(=O)C1=C(C)NC(C)=C(C(C)=O)C1c1ccc(-c2ccccc2Cl)o1 | inconclusive: 7.94 µM [inhibitor, full curve, poor fit] | –
COC(=O)C1=C(C)N(c2ccc(Br)cc2)C(=O)/C1=C\c1ccco1 | active: 50.1 µM | –
CCOc1c2ccc(C(=O)NCCc3cccs3)cc2nn1CC | inactive | –
Cc1c(NC(=S)NC(=O)C(C)(C)C)c(=O)n(-c2ccccc2)n1C | inconclusive: 79.4 µM [inhibitor, partial curve] | –
CC(=O)Cn1nnc(-c2ccc(C(F)(F)F)cc2)n1 | inactive | –
Cc1ccc(C2CC(c3ccccc3)=NN2C(=S)Nc2ccccc2)o1 (stereo not given) | inconclusive: 44.7 µM [inhibitor, partial curve, poor fit] | –
CC(=O)c1ccc2c(c1)Cc1cc(C(C)=O)ccc1-2 | inactive | –
COc1ccc(Br)cc1/C=N/N1C(=O)CSC1=S | inconclusive: 12.6 µM [inhibitor, full curve, poor fit] | –
O=C(O)c1cc(-c2ccc(/C=C3/SC(=S)N(Cc4ccccc4)C3=O)o2)ccc1Cl | inactive | –
CCn1c(SCC(=O)Nc2ccc3c(c2)OCCO3)nc2c(c1=O)SC(C)C2 (stereo not given) | inconclusive: 79.4 µM [inhibitor, single point] | –
CC(C)n1cc(/C=C2/NC(=O)N(c3cccc(Cl)c3)C2=O)c2ccccc21 | inconclusive: 56.2 µM [inhibitor, single point] | –
Cc1ccc(S(=O)(=O)N2c3ccccc3-c3c(ssc3=S)C2(C)C)cc1 | inconclusive: 89.1 µM [inhibitor, single point] | –
Cn1c(-c2sc3cc(C(F)(F)F)cnc3c2-c2cccs2)n[nH]c1=S | inconclusive: 20 µM [inhibitor, partial curve, poor fit] | –
CC1CCCC(C)N1/N=C/c1ccc(O)c(O)c1 (stereo not given) | inconclusive: 56.2 µM [inhibitor, partial curve, poor fit] | –
O=C(c1ccccc1)c1ccc2nc(N3CCN(C(=O)c4ccco4)CC3)c3nncn3c2c1 | inconclusive: 79.4 µM [inhibitor, single point] | –
COc1ccc(CNC(=O)CSc2n[nH]c(-c3ccc(OC)cc3)n2)cc1 | inactive | –
CN(C)S(=O)(=O)c1ccc(NC=C(C#N)C#N)cc1 | inconclusive: 50.1 µM [inhibitor, partial curve] | –
O=C1c2oc3ccc(F)cc3c(=O)c2C(c2ccc(F)cc2)N1CCCN1CCOCC1 (stereo not given) | inconclusive: 89.1 µM [inhibitor, single point] | –
O=Cc1[nH]c2ccccc2c1N(C(=O)CCl)c1ccccc1 | active: 3.55 µM | –

Compound | Potency | activity change, negative = inhibition
O=C1C(=Cc2ccco2)CCCC1=Cc1ccco1 | active: 44.7 µM | –
O=C1c2ccccc2C(=O)N1CC#CCN1CCN(C2CCCCC2)CC1 | inconclusive: 31.6 µM [inhibitor, single point] | –
Cc1ccc(F)cc1NC(=O)/C=C/c1ccc(S(=O)(=O)N2CCOCC2)cc1 | inactive | –
CC(C)c1ccc2c(c1)-c1ccccc1S(=O)(=O)N2CC(=O)N1CCCCC1 | inactive | –
CCC(=O)N1CCN(c2nc3ccc(Br)cc3s2)CC1 | inconclusive: 50.1 µM [inhibitor, partial curve, poor fit] | –
O=C(NN1C(=O)/C(=C/C=C/c2ccco2)SC1=S)c1ccncc1 | active: 12.6 µM | –
CC12CCC(=O)C=C1CCC1C2CCC2(C)C(c3csc(N)n3)CCC12 (stereo not given) | – | inactive: -0.32% [at 11.4 µM]
COC(=O)/C=C/c1ccccc1S(=O)(=O)N(Cc1ccccc1)Cc1ccco1 | inconclusive: 28.2 µM [inhibitor, single point] and inconclusive: 25.1 µM [inhibitor, partial curve] | –
O=C(/C=C/c1ccco1)N(Cc1ccc(Cl)cc1)C1CCS(=O)(=O)C1 (stereo not given) | active: 25.1 µM | –
CCn1c(=S)[nH]c2sc3c(c2c1=O)CCCC3 | inconclusive: 15.8 µM [inhibitor, full curve] | –
O=S(=O)(CCSc1ccccn1)c1nc2ccccc2s1 | active: 14.1 µM | –
Cc1ccc(Nc2nc(CSc3nnc(-c4ccc(F)cc4)n3C)cs2)cc1 | inconclusive: 79.4 µM [inhibitor, partial curve, poor fit] | –
Cc1ccc2c(c1)-c1[nH]c(=S)ncc1CS2 | inconclusive: 3.55 µM [inhibitor, partial curve] | –
CCOc1ccccc1NC(=S)Nc1ccc(S(N)(=O)=O)cc1 | inconclusive: 15.8 µM [inhibitor, partial curve, poor fit] | –
CC(C)(C)c1ccc(CN(Cc2ccco2)c2cnc(S(C)(=O)=O)nc2C(=O)Nc2ccc(F)cc2)cc1 | inactive | –
CC(C)(C)c1ccc(C(=O)NCC2CCCN2S(=O)(=O)c2ccccc2)cc1 (stereo not given) | inactive | –
O=C(O)C1CSC(c2ccccc2)N1C(=O)c1ccco1 (stereo not given) | inconclusive: 79.4 µM [inhibitor, single point] | –
O=[N+]([O-])c1cccnc1S(=O)(=O)c1ccccc1 | active: 1.12 µM | –
COc1cc(/C=N/S(=O)(=O)CCc2ccccc2)ccc1O | inconclusive: 70.8 µM [inhibitor, partial curve, poor fit] | –
Cc1ccc(C(=O)/C=C/c2ccc(-c3ccc(C)cc3)o2)cc1 | active: 17.8 µM | –
C=C1[C@@H](O)CN(Cc2ccc(OC)cc2)S1(=O)=O | inconclusive: 50.1 µM [inhibitor, single point] | –
Cc1nn(C)c(C(=O)N/N=C/c2cccnc2)c1Cl | inconclusive: 89.1 µM [inhibitor, partial curve, poor fit] | –
